Reference: publication PMC9008731
These are yes or no findings as the source states them, for the method shown. In cells and extracts the contact can be indirect. Some results given as binding are weak or reduced against the parent protein; the word gives no strength. Where a sequence is shown, tags or fusion partners need not be part of it.

The chains behind the UniProt entries cited, without tags or fusion partners.
UniProt O00429: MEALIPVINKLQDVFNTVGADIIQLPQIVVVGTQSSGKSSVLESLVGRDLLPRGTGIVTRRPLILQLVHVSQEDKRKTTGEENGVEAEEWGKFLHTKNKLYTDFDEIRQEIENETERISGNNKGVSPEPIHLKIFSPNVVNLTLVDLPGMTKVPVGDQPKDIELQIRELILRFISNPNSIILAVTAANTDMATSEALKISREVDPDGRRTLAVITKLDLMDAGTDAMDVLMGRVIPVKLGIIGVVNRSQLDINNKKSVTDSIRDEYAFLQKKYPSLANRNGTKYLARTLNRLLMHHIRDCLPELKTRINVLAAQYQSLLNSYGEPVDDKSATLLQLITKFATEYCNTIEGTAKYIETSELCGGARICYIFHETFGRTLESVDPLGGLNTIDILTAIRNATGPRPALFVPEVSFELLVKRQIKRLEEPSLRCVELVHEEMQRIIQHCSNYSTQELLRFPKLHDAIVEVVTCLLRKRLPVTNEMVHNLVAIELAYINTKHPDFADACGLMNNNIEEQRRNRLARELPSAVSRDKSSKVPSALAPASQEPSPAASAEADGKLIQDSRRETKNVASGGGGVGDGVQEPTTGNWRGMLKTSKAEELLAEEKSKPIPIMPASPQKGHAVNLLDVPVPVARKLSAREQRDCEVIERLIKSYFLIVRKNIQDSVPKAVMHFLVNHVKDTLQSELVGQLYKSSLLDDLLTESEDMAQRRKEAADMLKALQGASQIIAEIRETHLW

T1: Flag-PGAM5, full-length (WT) (UniProt Q96HS1)
T1 sequence: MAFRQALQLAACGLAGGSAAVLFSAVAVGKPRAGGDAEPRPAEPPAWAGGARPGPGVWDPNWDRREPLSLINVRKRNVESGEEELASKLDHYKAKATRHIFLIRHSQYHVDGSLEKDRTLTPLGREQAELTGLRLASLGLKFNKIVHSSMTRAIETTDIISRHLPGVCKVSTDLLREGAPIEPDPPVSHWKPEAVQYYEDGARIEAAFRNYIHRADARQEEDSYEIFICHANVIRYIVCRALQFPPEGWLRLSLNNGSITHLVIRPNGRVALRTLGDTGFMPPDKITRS

T2: Flag-PGAM5 N-terminus (1-98) (UniProt Q96HS1)
T2 sequence: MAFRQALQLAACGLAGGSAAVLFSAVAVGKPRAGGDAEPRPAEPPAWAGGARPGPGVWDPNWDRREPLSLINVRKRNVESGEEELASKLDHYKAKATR

T3: Flag-TOM70 (translocase of outer membrane 70) (UniProt O94826)
T3 sequence: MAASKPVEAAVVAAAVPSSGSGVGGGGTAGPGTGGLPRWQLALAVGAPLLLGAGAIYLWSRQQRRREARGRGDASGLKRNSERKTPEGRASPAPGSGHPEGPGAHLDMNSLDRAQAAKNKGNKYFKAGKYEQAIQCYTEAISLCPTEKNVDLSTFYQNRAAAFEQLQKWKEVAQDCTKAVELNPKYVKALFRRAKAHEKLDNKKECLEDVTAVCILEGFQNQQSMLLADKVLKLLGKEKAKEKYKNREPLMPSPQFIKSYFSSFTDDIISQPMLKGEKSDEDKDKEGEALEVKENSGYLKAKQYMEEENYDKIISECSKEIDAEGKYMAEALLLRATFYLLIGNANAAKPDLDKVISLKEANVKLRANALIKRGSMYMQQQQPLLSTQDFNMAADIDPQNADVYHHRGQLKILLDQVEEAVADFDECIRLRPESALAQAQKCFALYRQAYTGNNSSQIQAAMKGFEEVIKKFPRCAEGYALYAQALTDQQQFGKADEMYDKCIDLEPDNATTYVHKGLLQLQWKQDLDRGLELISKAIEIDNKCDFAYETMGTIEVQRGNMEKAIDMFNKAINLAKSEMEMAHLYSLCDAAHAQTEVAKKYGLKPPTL

T4: Flag-PGAM5 C-terminus (99-289) (UniProt Q96HS1)
T4 sequence: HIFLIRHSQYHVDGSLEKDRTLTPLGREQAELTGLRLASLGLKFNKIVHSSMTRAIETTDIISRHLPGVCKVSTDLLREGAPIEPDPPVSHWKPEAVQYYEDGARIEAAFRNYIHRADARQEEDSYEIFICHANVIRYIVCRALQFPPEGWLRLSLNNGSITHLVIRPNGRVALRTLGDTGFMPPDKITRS

T5: Flag-TOM20 (translocase of outer mitochondrial membrane 20), Q15388
T5 chain: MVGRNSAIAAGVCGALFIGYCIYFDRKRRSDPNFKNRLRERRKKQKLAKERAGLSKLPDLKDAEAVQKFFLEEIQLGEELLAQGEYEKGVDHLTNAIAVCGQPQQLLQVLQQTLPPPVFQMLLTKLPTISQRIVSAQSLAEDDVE


Columns and labels:
[1] = target: T1, Flag-PGAM5, full-length (WT); test: co-IP; Hep3B or PLC cells stably expressing or infected with the tagged proteins; whole cell lysates immunoprecipitated with anti-Flag antibody (or IgG), immunoblot; some cells treated with FCCP for 6 h or glucose-free medium for 24 h, or with SND1 knocked down
[2] = target: T1, Flag-PGAM5, full-length (WT); test: co-IP; HEK293T cells transfected with HA- and Flag-tagged plasmids; lysates in IP buffer (0.5% NP-40, 20 mM Tris-HCl pH 7.5, 150 mM NaCl, 2 mM EDTA, 1.5 mM MgCl2) immunoprecipitated with anti-Flag antibody (or IgG), protein A/G beads, immunoblot
[3] = target: T2, Flag-PGAM5 N-terminus (1-98); test: as above
[4] = target: T3, Flag-TOM70 (translocase of outer membrane 70); test: as above
[5] = target: T4, Flag-PGAM5 C-terminus (99-289); test: as above
[6] = target: T1, Flag-PGAM5, full-length (WT); test: co-IP; Hep3B or PLC cells stably expressing HA-SND1 and infected with Flag-PGAM5; anti-Flag IP in enriched mitochondrial fractions, immunoblot with antibodies against PGAM5 and SND1
[7] = target: T5, Flag-TOM20 (translocase of outer …); test: co-IP; HEK293T cells transfected with HA- and Flag-tagged plasmids; lysates in IP buffer (0.5% NP-40, 20 mM Tris-HCl pH 7.5, 150 mM NaCl, 2 mM EDTA, 1.5 mM MgCl2) immunoprecipitated with anti-Flag antibody (or IgG), protein A/G beads, immunoblot; details: remark: other sources report otherwise

| Molecule | binding [1] | binding [2] | binding [3] | binding [4] | binding [5] | binding [6] | binding [7] |
| --- | --- | --- | --- | --- | --- | --- | --- |
| HA-DRP1 (dynamin-related protein 1) (from UniProt O00429 1-736) | binds | – | – | – | – | – | – |
| HA-SND1 (Staphylococcal nuclease domain-containing protein 1), Q7KZF4 1-910 (protein) MASSAQSGGSSGGPAVPTVQRGIIKMVLSGCAIIVRGQPRGGPPPERQINLSNIRAGNLARRAAATQPDAKDTPDEPWAFPAREFLRKKLIGKEVCFTIENKTPQGREYGMIYLGKDTNGENIAESLVAEGLATRREGMRANNPEQNRLSECEEQAKAAKKGMWSEGNGSHTIRDLKYTIENPRHFVDSHHQKPVNAIIEHVRDGSVVRALLLPDYYLVTVMLSGIKCPTFRREADGSETPEPFAAEAKFFTESRLLQRDVQIILESCHNQNILGTILHPNGNITELLLKEGFARCVDWSIAVYTRGAEKLRAAERFAKERRLRIWRDYVAPTANLDQKDKQFVAKVMQVLNADAIVVKLNSGDYKTIHLSSIRPPRLEGENTQDKNKKLRPLYDIPYMFEAREFLRKKLIGKKVNVTVDYIRPASPATETVPAFSERTCATVTIGGINIAEALVSKGLATVIRYRQDDDQRSSHYDELLAAEARAIKNGKGLHSKKEVPIHRVADISGDTQKAKQFLPFLQRAGRSEAVVEYVFSGSRLKLYLPKETCLITFLLAGIECPRGARNLPGLVQEGEPFSEEATLFTKELVLQREVEVEVESMDKAGNFIGWLHIDGANLSVLLVEHALSKVHFTAERSSYYKSLLSAEEAAKQKKEKVWAHYEEQPVEEVMPVLEEKERSASYKPVFVTEITDDLHFYVQDVETGTQLEKLMENMRNDIASHPPVEGSYAPRRGEFCIAKFVDGEWYRARVEKVESPAKIHVFYIDYGNREVLPSTRLGTLSPAFSTRVLPAQATEYAFAFIQVPQDDDARTDAVDSVVRDIQNTQCLLNVEHLSAGCPHVTLQFADSKGDVGLGLVKEGLVMVEVRKEKQFQKVITEYLNAQESAKSARLNLWRYGDFRADDADEFGYSR | – | – | – | – | – | – | no binding |

The remaining lines, values ahead:

| binding [1] | binding [2] | binding [3] | binding [4] | binding [5] | binding [6] | binding [7] | Molecule |
| --- | --- | --- | --- | --- | --- | --- | --- |
| binds | binds | no binding | binds | binds | binds | – | HA-SND1 (Staphylococcal nuclease domain-containing protein 1) (from UniProt Q7KZF4 1-910) |
| binds | binds | – | – | – | – | – | SND1, endogenous (from UniProt Q7KZF4 1-910) |
